# Laboratory results taken from the supplement of paper PMC8728848.
# This is one part of the list.
# Assays:
# Assay in all cases: glycan array binding signal (z-score within array); higher = stronger binding
# Conditions in all cases: glycan notation: IUPAC condensed, linker removed
# GlcNAc(b1-3)Gal(b1-4)Glc = molecular target: GlcNAc(b1-3)Gal(b1-4)Glc
# Outline: (§1)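 Negative Z-scores can be read as non-binding. The Z-score is calculated within each array and then averaged across arrays of one protein sequence at different concentrations or buffers and across linkers. Arrays, 3228 in all, were curated from the Consortium for Functional Glycomics database and kept only where the protein sequence was available.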
# [1] = molecular target: GlcNAc(b1-3)Gal(b1-4)GlcNAc
# Outline: as §1
# [2] = molecular target: GlcNAc(b1-3)Gal(b1-4)GlcNAc(b1-2)Man(a1-3)[GlcNAc(b1-3)Gal(b1-4)GlcNAc(b1-2)Man(a1-6)]Man(b1-4)GlcNAc(b1-4)GlcNAc
# Outline: as §1
# [3] = molecular target: GlcNAc(b1-3)Gal(b1-4)GlcNAc(b1-2)Man(a1-3)[GlcNAc(b1-3)Gal(b1-4)GlcNAc(b1-2)Man(a1-6)]Man(b1-4)GlcNAc(b1-4)[Fuc(a1-6)]GlcNAc
# Outline: as §1
# [4] = molecular target: GlcNAc(b1-3)Gal(b1-4)GlcNAc(b1-2)[GlcNAc(b1-3)Gal(b1-4)GlcNAc(b1-6)]Man(a1-6)[GlcNAc(b1-3)Gal(b1-4)GlcNAc(b1-2)Man(a1-3)]Man(b1-4)GlcNAc(b1-4)GlcNAc
# Outline: as §1
# [5] = molecular target: GlcNAc(b1-3)Gal(b1-4)GlcNAc(b1-3)Gal(b1-4)GlcNAc
# Outline: as §1
# [6] = molecular target: GlcNAc(b1-3)Gal(b1-4)GlcNAc(b1-3)Gal(b1-4)GlcNAc(b1-2)Man(a1-3)[GlcNAc(b1-3)Gal(b1-4)GlcNAc(b1-3)Gal(b1-4)GlcNAc(b1-2)Man(a1-6)]Man(b1-4)GlcNAc(b1-4)GlcNAc
# Outline: as §1
# [7] = molecular target: GlcNAc(b1-3)Gal(b1-4)GlcNAc(b1-3)Gal(b1-4)GlcNAc(b1-2)Man(a1-3)[GlcNAc(b1-3)Gal(b1-4)GlcNAc(b1-3)Gal(b1-4)GlcNAc(b1-2)Man(a1-6)]Man(b1-4)GlcNAc(b1-4)[Fuc(a1-6)]GlcNAc
# Outline: as §1
# [8] = molecular target: GlcNAc(b1-3)Gal(b1-4)GlcNAc(b1-3)Gal(b1-4)GlcNAc(b1-2)[GlcNAc(b1-3)Gal(b1-4)GlcNAc(b1-3)Gal(b1-4)GlcNAc(b1-6)]Man(a1-6)[GlcNAc(b1-3)Gal(b1-4)GlcNAc(b1-3)Gal(b1-4)GlcNAc(b1-2)Man(a1-3)]Man(b1-4)GlcNAc(b1-4)[Fuc(a1-6)]GlcNAc
# Outline: as §1
# [9] = molecular target: GlcNAc(b1-3)Gal(b1-4)GlcNAc(b1-3)Gal(b1-4)GlcNAc(b1-3)Gal(b1-4)GlcNAc(b1-2)Man(a1-3)[GlcNAc(b1-3)Gal(b1-4)GlcNAc(b1-3)Gal(b1-4)GlcNAc(b1-3)Gal(b1-4)GlcNAc(b1-2)Man(a1-6)]Man(b1-4)GlcNAc(b1-4)GlcNAc
# Outline: as §1
# [10] = molecular target: GlcNAc(b1-3)Gal(b1-4)GlcNAc(b1-3)Gal(b1-4)GlcNAc(b1-3)Gal(b1-4)GlcNAc(b1-2)Man(a1-3)[GlcNAc(b1-3)Gal(b1-4)GlcNAc(b1-3)Gal(b1-4)GlcNAc(b1-3)Gal(b1-4)GlcNAc(b1-2)Man(a1-6)]Man(b1-4)GlcNAc(b1-4)[Fuc(a1-6)]GlcNAc
# Outline: as §1
# [11] = molecular target: GlcNAc(b1-3)Gal(b1-4)GlcNAc(b1-3)Gal(b1-4)GlcNAc(b1-3)Gal(b1-4)GlcNAc(b1-2)[GlcNAc(b1-3)Gal(b1-4)GlcNAc(b1-3)Gal(b1-4)GlcNAc(b1-3)Gal(b1-4)GlcNAc(b1-6)]Man(a1-6)[GlcNAc(b1-3)Gal(b1-4)GlcNAc(b1-3)Gal(b1-4)GlcNAc(b1-3)Gal(b1-4)GlcNAc(b1-2)Man(a1-3)]Man(b1-4)GlcNAc(b1-4)[Fuc(a1-6)]GlcNAc
# Outline: as §1
# [12] = molecular target: GlcNAc(b1-3)Gal(b1-4)GlcNAc(b1-3)Gal(b1-4)GlcNAc(b1-3)Gal(b1-4)GlcNAc(b1-3)Gal(b1-4)GlcNAc(b1-2)Man(a1-3)[GlcNAc(b1-3)Gal(b1-4)GlcNAc(b1-3)Gal(b1-4)GlcNAc(b1-3)Gal(b1-4)GlcNAc(b1-3)Gal(b1-4)GlcNAc(b1-2)Man(a1-6)]Man(b1-4)GlcNAc(b1-4)GlcNAc
# Outline: as §1
# [13] = molecular target: GlcNAc(b1-3)Gal(b1-4)GlcNAc(b1-3)Gal(b1-4)GlcNAc(b1-3)Gal(b1-4)GlcNAc(b1-3)Gal(b1-4)GlcNAc(b1-2)Man(a1-3)[GlcNAc(b1-3)Gal(b1-4)GlcNAc(b1-3)Gal(b1-4)GlcNAc(b1-3)Gal(b1-4)GlcNAc(b1-3)Gal(b1-4)GlcNAc(b1-2)Man(a1-6)]Man(b1-4)GlcNAc(b1-4)[Fuc(a1-6)]GlcNAc
# Outline: as §1
# [14] = molecular target: GlcNAc(b1-3)Gal(b1-4)GlcNAc(b1-3)Gal(b1-4)GlcNAc(b1-3)Gal(b1-4)GlcNAc(b1-3)Gal(b1-4)GlcNAc(b1-2)[GlcNAc(b1-3)Gal(b1-4)GlcNAc(b1-3)Gal(b1-4)GlcNAc(b1-3)Gal(b1-4)GlcNAc(b1-3)Gal(b1-4)GlcNAc(b1-6)]Man(a1-6)[GlcNAc(b1-3)Gal(b1-4)GlcNAc(b1-3)Gal(b1-4)GlcNAc(b1-3)Gal(b1-4)GlcNAc(b1-3)Gal(b1-4)GlcNAc(b1-2)Man(a1-3)]Man(b1-4)GlcNAc(b1-4)[Fuc(a1-6)]GlcNAc
# Outline: as §1
# [15] = molecular target: GlcNAc(b1-3)Gal(b1-4)GlcNAc(b1-3)Gal(b1-4)GlcNAc(b1-3)GalNAc
# Outline: as §1
# [16] = molecular target: GlcNAc(b1-3)Gal(b1-4)GlcNAc(b1-3)GalNAc
# Outline: as §1
# [17] = molecular target: GlcNAc(b1-3)Gal(b1-4)GlcNAc(b1-3)[GlcNAc(b1-3)Gal(b1-4)GlcNAc(b1-3)]GalNAc
# Outline: as §1
# [18] = molecular target: GlcNAc(b1-3)Gal(b1-4)GlcNAc(b1-6)[Gal(b1-3)]GalNAc
# Outline: as §1
# [19] = molecular target: GlcNAc(b1-3)Gal(b1-4)GlcNAc(b1-6)[GlcNAc(b1-3)Gal(b1-3)]GalNAc
# Outline: as §1
# [20] = molecular target: GlcNAc(b1-3)Gal(b1-4)GlcNAc(b1-6)[GlcNAc(b1-3)]Gal(b1-4)GlcNAc
# Outline: as §1
# GlcNAc(b1-3)GalNAc = molecular target: GlcNAc(b1-3)GalNAc
# Outline: as §1
# GlcNAc(b1-3)Man = molecular target: GlcNAc(b1-3)Man
# Outline: as §1
# [21] = molecular target: GlcNAc(b1-3)[GlcNAc(b1-4)][GlcNAc(b1-6)]GlcNAc
# Outline: as §1
# [22] = molecular target: GlcNAc(b1-3)[GlcNAc(b1-6)]Gal(b1-4)GlcNAc
# Outline: as §1
# [23] = molecular target: GlcNAc(b1-3)[GlcNAc(b1-6)]GalNAc
# Outline: as §1
# [24] = molecular target: GlcNAc(b1-4)Gal(b1-4)GlcNAc
# Outline: as §1
# GlcNAc(b1-4)GlcNAc = molecular target: GlcNAc(b1-4)GlcNAc
# Outline: as §1
# [25] = molecular target: GlcNAc(b1-4)GlcNAc(b1-4)GlcNAc
# Outline: as §1
# [26] = molecular target: GlcNAc(b1-4)GlcNAc(b1-4)GlcNAc(b1-4)GlcNAc(b1-4)GlcNAc
# Outline: as §1
# [27] = molecular target: GlcNAc(b1-4)GlcNAc(b1-4)GlcNAc(b1-4)GlcNAc(b1-4)GlcNAc(b1-4)GlcNAc
# Outline: as §1
# [28] = molecular target: GlcNAc(b1-4)[GlcNAc(b1-6)]GalNAc
# Outline: as §1
# [29] = molecular target: GlcNAc(b1-6)Gal(b1-4)GlcNAc
# Outline: as §1
# GlcNAc(b1-6)GalNAc = molecular target: GlcNAc(b1-6)GalNAc
# Outline: as §1
# [30] = molecular target: GlcNAc6S(b1-3)Gal(b1-4)GlcNAc
# Outline: as §1
# Kdn(a2-3)Gal(b1-3)GalNAc = molecular target: Kdn(a2-3)Gal(b1-3)GalNAc
# Outline: as §1
# Kdn(a2-3)Gal(b1-3)GlcNAc = molecular target: Kdn(a2-3)Gal(b1-3)GlcNAc
# Outline: as §1
# Kdn(a2-3)Gal(b1-4)Glc = molecular target: Kdn(a2-3)Gal(b1-4)Glc
# Outline: as §1
# Kdn(a2-3)Gal(b1-4)GlcNAc = molecular target: Kdn(a2-3)Gal(b1-4)GlcNAc
# Outline: as §1
# [31] = molecular target: Kdn(a2-3)Gal(b1-4)[Fuc(a1-3)]GlcNAc
# Outline: as §1
# Kdn(a2-6)Gal(b1-4)GlcNAc = molecular target: Kdn(a2-6)Gal(b1-4)GlcNAc
# Outline: as §1
# [32] = molecular target: Man(a1-2)Man(a1-2)Man(a1-3)Man
# Outline: as §1
# [33] = molecular target: Man(a1-2)Man(a1-2)Man(a1-6)[Man(a1-3)]Man
# Outline: as §1
# Man(a1-2)Man(a1-3)Man = molecular target: Man(a1-2)Man(a1-3)Man
# Outline: as §1
# [34] = molecular target: Man(a1-2)Man(a1-3)[Man(a1-2)Man(a1-6)]Man
# Outline: as §1
binder,measurement,setting,value
HPL (Tachypleus tridentatus) (protein) MEDDCTCVTDRSLEGKLMKHPSTPAVYQILDGCRRLVPNPPTYNNIYKNWECIQSNILEKLLCKCDSLSNGAELIKGSGDTVYLLSNGVKRPIADPETFNGFCFDWNKIKTYSDIVINSLSTGPIIIIKHHHHHH,glycan array binding signal (z-score),GlcNAc(b1-3)Gal(b1-4)Glc,-0.293
same,glycan array binding signal (z-score),[1],-0.294
same,glycan array binding signal (z-score),[2],0.011
same,glycan array binding signal (z-score),[3],0.104
same,glycan array binding signal (z-score),[4],0.395
same,glycan array binding signal (z-score),[5],-0.199
same,glycan array binding signal (z-score),[6],0.175
same,glycan array binding signal (z-score),[7],0.119
same,glycan array binding signal (z-score),[8],-0.19
same,glycan array binding signal (z-score),[9],-0.2
same,glycan array binding signal (z-score),[10],0.124
same,glycan array binding signal (z-score),[11],-0.068
same,glycan array binding signal (z-score),[12],0.291
same,glycan array binding signal (z-score),[13],0.072
same,glycan array binding signal (z-score),[14],-0.187
same,glycan array binding signal (z-score),[15],-0.251
same,glycan array binding signal (z-score),[16],-0.253
same,glycan array binding signal (z-score),[17],-0.153
same,glycan array binding signal (z-score),[18],-0.176
same,glycan array binding signal (z-score),[19],-0.089
same,glycan array binding signal (z-score),[20],-0.339
same,glycan array binding signal (z-score),GlcNAc(b1-3)GalNAc,-0.228
same,glycan array binding signal (z-score),GlcNAc(b1-3)Man,0.24
same,glycan array binding signal (z-score),[21],-0.296
same,glycan array binding signal (z-score),[22],-0.288
same,glycan array binding signal (z-score),[23],-0.304
same,glycan array binding signal (z-score),[24],-0.298
same,glycan array binding signal (z-score),GlcNAc(b1-4)GlcNAc,-0.144
same,glycan array binding signal (z-score),[25],-0.174
same,glycan array binding signal (z-score),[26],0.534
same,glycan array binding signal (z-score),[27],-0.084
same,glycan array binding signal (z-score),[28],-0.382
same,glycan array binding signal (z-score),[29],-0.224
same,glycan array binding signal (z-score),GlcNAc(b1-6)GalNAc,-0.188
same,glycan array binding signal (z-score),[30],-0.343
same,glycan array binding signal (z-score),Kdn(a2-3)Gal(b1-3)GalNAc,0.271
same,glycan array binding signal (z-score),Kdn(a2-3)Gal(b1-3)GlcNAc,-0.274
same,glycan array binding signal (z-score),Kdn(a2-3)Gal(b1-4)Glc,1
same,glycan array binding signal (z-score),Kdn(a2-3)Gal(b1-4)GlcNAc,-0.185
same,glycan array binding signal (z-score),[31],0.123
same,glycan array binding signal (z-score),Kdn(a2-6)Gal(b1-4)GlcNAc,-0.279
same,glycan array binding signal (z-score),[32],-0.291
same,glycan array binding signal (z-score),[33],-0.201
same,glycan array binding signal (z-score),Man(a1-2)Man(a1-3)Man,-0.385
same,glycan array binding signal (z-score),[34],-0.302
